Reference: the supplement of paper PMC4967469
IC50 is the fitted dose that halves viability relative to control wells, and lower means more sensitive; fits outside the tested doses are given as limits. AUC is the area under the same curve over the 256-fold range up to the top dose, as a fraction; the more sensitive the line, the further below 1. For some assays here: The top dose, if marked as inferred, was derived from the fitted curves, not read from the paper. For some assays here: Drugs with an entry number were screened twice under separate entries, and the two screens often disagree.

Assays:
Experiment in all cases: Viability of human cancer cell lines after 72 h of drug (GDSC screen)
PLX4720 = compound: CCCS(=O)(=O)Nc1ccc(F)c(C(=O)c2c[nH]c3ncc(Cl)cc23)c1F [PLX4720]; conditions: top dose 10 µM
Experimental: (§1)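 Human cancer cell lines in 384-well plates, medium with 10% serum, drug for 72 h over a 256-fold dose range (nine 2-fold or five 4-fold steps up to the top dose). Adherent lines were fixed and stained with the nucleic acid dye Syto60, suspension lines read with resazurin; signal relative to control wells, capped at 0 and 100%. One two-parameter sigmoid per drug and line, fitted in a mixed model over all curves with the slope shared within a line.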

AZD-0530 = compound: CN1CCN(CCOc2cc(OC3CCOCC3)c3c(Nc4c(Cl)ccc5c4OCO5)ncnc3c2)CC1 [AZD-0530]; conditions: top dose 2 µM
Experimental: as §1

TPCA-1 = compound: NC(=O)Nc1sc(-c2ccc(F)cc2)cc1C(N)=O [TPCA-1]; conditions: top dose 20 µM
Experimental: as §1

PHA-793887 = compound: CC(C)CC(=O)Nc1n[nH]c2c1CN(C(=O)C1CCN(C)CC1)C2(C)C [PHA-793887]; conditions: top dose 10.24 µM
Experimental: as §1

Epothilone B = compound: C/C(=C\c1csc(C)n1)[C@@H]1C[C@@H]2O[C@]2(C)CCC[C@H](C)[C@H](O)[C@@H](C)C(=O)C(C)(C)[C@@H](O)CC(=O)O1 [Epothilone B]; conditions: top dose 0.032 µM; top dose inferred
Experimental: as §1

Y-39983 = compound: C[C@@H](N)c1ccc(C(=O)Nc2ccnc3[nH]ccc23)cc1 [Y-39983]; conditions: top dose 20 µM; top dose inferred
Experimental: as §1

[1] = screen: GDSC drug entry 1371, top dose inferred

| Cell Line | AUC (PLX4720; screen: GDSC drug entry 1036) | IC50 (PLX4720; screen: GDSC drug entry 1036) [µM] | AUC (PLX4720; [1]) | IC50 (PLX4720; [1]) [µM] | AUC (AZD-0530) | IC50 (AZD-0530) [nM] | AUC (TPCA-1) | IC50 (TPCA-1) [µM] | AUC (PHA-793887) | IC50 (PHA-793887) [µM] | AUC (Epothilone B) | IC50 (Epothilone B) [nM] | AUC (Y-39983) | IC50 (Y-39983) [µM] |
| --- | --- | --- | --- | --- | --- | --- | --- | --- | --- | --- | --- | --- | --- | --- |
| A704 (kidney, adherent) | 0.935 | > 10 | 0.963 | > 10 | 0.801 | 942 | 0.873 | 18.2 | 0.989 | > 10.2 | 0.684 | 6.41 | 0.904 | > 20 |
| EHEB (lymphoid neoplasm, suspension) | 0.938 | > 10 | 0.931 | > 10 | 0.923 | > 2000 |  |  |  |  | 0.805 | 25.8 |  |  |
| EoL-1-cell (haematopoietic neoplasm, suspension) | 0.804 | 4.32 | 0.828 | 5.21 | 0.898 | 1990 | 0.344 | 0.488 | 0.618 | 1.3 | 0.636 | 4.52 | 0.484 | 1.14 |
| HCE-4 (oesophagus, adherent) |  |  |  |  | 0.975 | > 2000 | 0.989 | > 20 | 0.992 | > 10.2 | 0.476 | 1.74 | 0.988 | > 20 |
| HEL (acute myeloid leukaemia, semi-adherent) |  |  | 0.991 | > 10 | 0.992 | > 2000 | 0.426 | 0.811 | 0.761 | 3.08 | 0.597 | 3.51 | 0.966 | > 20 |
| IA-LM (large cell lung carcinoma, adherent) | 0.913 | > 10 | 0.931 | > 10 | 0.985 | > 2000 | 0.95 | > 20 | 0.826 | 7.25 | 0.32 | 0.588 | 0.971 | > 20 |
| JSC-1 (B-cell lymphoma, suspension) | 0.952 | > 10 | 0.962 | > 10 | 0.977 | > 2000 | 0.354 | 0.495 | 0.353 | 0.251 | 0.573 | 3.16 | 0.742 | 6.11 |
| K-562 (chronic myeloid leukaemia, suspension) |  |  |  |  | 0.852 | 1470 |  |  |  |  |  |  |  |  |
| KARPAS-620 (haematopoietic neoplasm, suspension) | 0.991 | > 10 | 0.99 | > 10 | 0.991 | > 2000 | 0.609 | 2.38 | 0.474 | 0.548 | 0.492 | 1.91 | 0.824 | 9.73 |
| KLE (endometrium, adherent) | 0.961 | > 10 | 0.934 | > 10 | 0.887 | > 2000 | 0.789 | 15 | 0.923 | > 10.2 | 0.836 | > 32 | 0.935 | > 20 |
| KP-N-RT-BM-1 (neuroblastoma, semi-adherent) |  |  |  |  | 0.961 | > 2000 |  |  |  |  |  |  |  |  |
| Saos-2 (osteosarcoma, adherent) | 0.972 | > 10 | 0.978 | > 10 |  |  | 0.981 | > 20 | 0.973 | > 10.2 | 0.977 | > 32 | 0.981 | > 20 |
| SiHa (cervix, adherent) | 0.987 | > 10 | 0.976 | > 10 |  |  | 0.987 | > 20 | 0.984 | > 10.2 | 0.893 | > 32 | 0.987 | > 20 |
| T47D (breast, adherent) | 0.978 | > 10 | 0.959 | > 10 |  |  | 0.818 | > 20 | 0.77 | 6.15 | 0.909 | > 32 | 0.978 | > 20 |
| T84 (large intestine, adherent) | 0.988 | > 10 | 0.988 | > 10 |  |  | 0.87 | 19.1 | 0.988 | > 10.2 | 0.257 | 0.396 | 0.94 | > 20 |
| T98G (glioma, adherent) | 0.932 | > 10 | 0.961 | > 10 |  |  | 0.929 | > 20 | 0.946 | > 10.2 | 0.812 | 15.5 | 0.96 | > 20 |
| T-24 (bladder, adherent) |  |  | 0.825 | 5.66 |  |  | 0.907 | > 20 | 0.926 | > 10.2 | 0.813 | 16.3 | 0.922 | > 20 |
| T-T (oesophagus, adherent) | 0.894 | > 10 | 0.944 | > 10 |  |  | 0.763 | 7.19 | 0.909 | > 10.2 | 0.251 | 0.386 | 0.906 | > 20 |
| TCCSUP (bladder, adherent) | 0.934 | > 10 | 0.944 | > 10 |  |  | 0.952 | > 20 | 0.985 | > 10.2 | 0.613 | 4.28 | 0.957 | > 20 |
| TGBC11TKB (stomach, adherent) | 0.988 | > 10 | 0.982 | > 10 |  |  | 0.978 | > 20 | 0.99 | > 10.2 | 0.661 | 5.27 | 0.992 | > 20 |
| THP-1 (acute myeloid leukaemia, suspension) | 0.976 | > 10 | 0.981 | > 10 |  |  | 0.793 | 8.16 | 0.74 | 2.86 | 0.854 | 21.3 | 0.913 | > 20 |
| TMK-1 (stomach, adherent) | 0.986 | > 10 | 0.984 | > 10 |  |  | 0.881 | > 20 | 0.863 | 9.72 | 0.546 | 2.7 | 0.972 | > 20 |
| TOV-21G (ovary, adherent) | 0.785 | 4.68 | 0.904 | > 10 |  |  | 0.934 | > 20 | 0.967 | > 10.2 | 0.979 | > 32 | 0.973 | > 20 |
